Self-cleavage data for 20 variants are collected here from the RNAGym collection of RNA variant scans (doi:10.7554/elife.90254).

B1: OR4K15 (parent)
chain: GUUAACGGUCAUAGGCCAUGGAAACUAGGAGCACCAUUUCGCUGCCAGUGAAGAAAUGAACAAAGAAAAUCUGGGCCAGGCAGGCAUCAAAAGAAAUAGUCUUGCGCUCAACCAGAAAGUCUGUAAUCAUUUUAAGGGUA

The source gives no read counts; variants with many changes may rest on few reads.

In this series the parent is B1. In words: self-cleavage, relative activity (ratio to wild type); higher = more cleavage; in vitro, sequencing; the parent is a self-cleaving ribozyme.
GUUAACGGUCAUAGGCCAUGGAAACUAGGAGCACCAUUUCGCUGCCAGUGAAGAGAUGAGCAAAGAAAAUCUGGGCCAGGCAGGCAUCAAAAGAAAUAGUCUUGCGCUCAACCAGAAAGUCUGUAAUCAUUCUAAGGGUA: the self-cleavage came to 0.85.
The figure for GUUAACGGUCAUAGGCCAUGGAAACUAGGAGCACCAUUUCGCUGCCAGUGAAGUAAUGAACAAAGAAAAUCUGGGCCAGGCAGGCAUCAAAAGAAUUAGUCUUGCGCUCAACCAGAAAGUCUGUAAUCAUUUUAUGGGUA is 2.14.
Regarding GUUAACGGUCAUAGGCCAUGGAAACUAGGAGCACCAUUUCGCUGCCAGUGAAGAGAUGAGCAAAGAAAAUCUGGGCCAGGCAGGCAUCAAAGGAAAUAGUCUUGCGCACAACCAGAAAGUCUGUAAUCAUUUUAAGGGUA, the self-cleavage amounted to 0.03.
The same measure for GUUAACGGUCAUAGGCCAUGGAAACUAGGAGCACCAUUUCGCUGCCAGUGAAGUAAUGAACAAUGAGAAUCUGGGCCUGGCAGGCAUCAAAAGAAACAGUCUUGCGCUCAACCAGAAAGUCUGUAAUCAUUUUAAGGGUA: 0.14; for GUUAACGGUCAUAGGCCAUGGAAACUAGGAGCACCAUUUCGCUGCCAGUGAAGAGAUGAACCGAGAAAAUCUGGGCCAGGCAGGCAUCAAAAGAAAUAGUCUUGCGCUCAACCAGAAAGUCUGUAAUCAUUUUAAGGGUA: 1.36; for GUUAACGGUCAUAGGCCAUGGAAACUAGGAGCACCAUUUCGCUGCCAGUGAAGAGAUGAACAACGAAAAUCUGGGCCAGGCAGGCAUCAAAAGAAAUAGUCUUGCGCUCAACCAGAUAGUCUGUAAUCAUUUUAAGGGUA: 1.01.
As for GUUAACGGUCAUAGGCCAUGGAAACUAGGAGCACCAUUUCGCUGCCAGUGAAGUAAUGAACAAUGAAAAUCUGGGCCAGGCAGGCAUCAAAAGAAAUAGUCUUGCGCUCAACCAGAAAGUCUGUAAUCAUUUUAAGGGCA, the self-cleavage stood at 0.26.
Take GUUAACGGUCAUAGGCCAUGGAAACUAGGAGCACCAUUUCGCUGCCAGUGAAGAGAUGAACGAAGAAAAUCUGGGCCAGGCAGGCAUCAAAAGAAAUAGUCUUGCGCUCAACCAGAAAGUCAGUAAUCAUCUUAAGGGUA: the self-cleavage was 2.18.
The figure for GUUAACGGUCAUAGGCCAUGGAAACUAGGAGCACCAUUUCGCUGCCAGUGAAGUAAUGAACAAAGAAAAUCUGGGCCAGGCAGGCAUCGAAAGAAAUAGUCUUGCGCUCAACCAGAAAGUCUGUAAUCAUUUUAGGGGUA is 1.22.
As for GUUAACGGUCAUAGGCCAUGGAAACUAGGAGCACCAUUUCGCUGCCAGUGAAGACAUGAACAAAGAGAAUCUGGGCCAGGCAGGCCUCAAAAGAAAUAGUCUUGCGCUCAACCAGAAAGUCUGUAAUCAUUUUAAGGGUA, the self-cleavage was 0.59.
The figure for GUUAACGGUCAUAGGCCAUGGAAACUAGGAGCACCAUUUCGCUGCCAGUGAAGUAAUGAACAAAGAAAAUCUGGGCCAGGCGGGCAUCAAAAGGAAUAGUCUUGCGCCCAACCAGAAAGUCUGCAAUCACUUUAAGGGUA is 0; for GUUAACGGUCAUAGGCCAUGGAAACUAGGAGCACCAUUUCGCUGCCAGUGAAGUAAUGAACAAAGAAAAUCUGGGCCAGGCAGGCAUCAAAAGAAACAGUCUUGCGCUCAACCAGAAAGUCUGUAAUCGUUUUAAGGGUA it is 0.92.
As to GUUAACGGUCAUAGGCCAUGGAAACUAGGAGCACCAUUUCGCUGCCAGUGAAGAGGUGAACAAAGAAAAUCUGGGCCAGGCAGGCAUCAAAGGAAAUAGUCUUGCGCUCAACCAGAAAGUCUGUAAUCAUCUUAAGGGUA, the self-cleavage is 2.11.
The figure for GUUAACGGUCAUAGGCCAUGGAAACUAGGAGCACCAUUUCGCUGCCAGUGAAGAGAUGAACUAAGAAAAUCUGGGCCAGGCAGGCAUCAAAAGAAAUAGUCUUGCGCUCAACCAGAAAGUCUGUAAUCAUUAUAAGGGUA is 1.82.
The figure for GUUAACGGUCAUAGGCCAUGGAAACUAGGAGCACCAUUUCGCUGCCAGUGAAGAGAUGAACAAAGGAAAUCUGGGCCAGGCAGGCAUCAAAAGAAAUAGUCUUGCGCUCAACCAGGAAGUCUGUAAUCAUUUUAAGGGUA is 0.2.
The same measure for GUUAACGGUCAUAGGCCAUGGAAACUAGGAGCACCAUUUCGCUGCCAGUGAAGAGUUGAACAAAGAAAAUCUGGGCCAGGCAGGCAUCAAAAGAAAUAGUCUUGCGCUCAACCAGAAAGCCUGUAAUCAUUUUAAGGGUA: 0.47; for GUUAACGGUCAUAGGCCAUGGAAACUAGGAGCACCAUUUCGCUGCCAGUGAAGUAAUGAACAAAGAAAAUCUGUGCCAGGCAGGCAUCAAAAGAAAUAGUCUUGCGCUCAACCAGAAAGCCUGUAAUCAUUUUAAGGGUA: 0.12.
In the case of GUUAACGGUCAUAGGCCAUGGAAACUAGGAGCACCAUUUCGCUGCCAGUGAAGAGAUGAGCAAAGAAAAUCUGGGCCAUGCAGGCAUCAAAAGAAAUAGUCUUGCGCUCAACCAGAAAGUCUGUAAUCAUUUUAAGGGUA, the self-cleavage came to 0.21.
As to GUUAACGGUCAUAGGCCAUGGAAACUAGGAGCACCAUUUCGCUGCCAGUGAAGUAAUGAACGGAGAAAAUCUGGGCCAGGCAGGCAUCAAAAGAAAUAGUCUUGCGCUCAACCAGGAAGUCUGUAAUCAUUUUAAGGGUA, the self-cleavage is 0.82.
As to GUUAACGGUCAUAGGCCAUGGAAACUAGGAGCACCAUUUCGCUGCCAGUGAAGUAAUGAACAAAGAAAAUCUGGGCCAGGCGGGCAUCGAAAGAACUAGUCUUGCGCUCAACCAGAAAGUCUGUAAUCAUUUUAAGGGUA, the self-cleavage amounted to 0.06.
